Results on 115 sequences are retold here after the BET-seq Pho4 binding data (Le et al. 2018).

The other results are listed elsewhere or left out. Values were computed here from the reads of four pooled replicates and scatter widely.

The target of the assay is T1, Pho4 (S. cerevisiae) (UniProt P07270).
T1 sequence: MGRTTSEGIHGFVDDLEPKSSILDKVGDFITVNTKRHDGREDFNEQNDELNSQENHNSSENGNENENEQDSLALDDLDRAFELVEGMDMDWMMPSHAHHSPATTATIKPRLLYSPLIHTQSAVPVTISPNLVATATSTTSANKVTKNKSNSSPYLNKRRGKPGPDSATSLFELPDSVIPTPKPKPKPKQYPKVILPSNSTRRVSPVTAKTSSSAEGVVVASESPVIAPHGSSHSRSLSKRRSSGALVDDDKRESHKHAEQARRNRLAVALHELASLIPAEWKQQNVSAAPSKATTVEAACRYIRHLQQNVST
As to the kind of experiment: relative binding free energy (BET-seq); higher = weaker binding. The following applies: reference: library average.
With GATATCACGTGGGGCG, the “relative binding free energy” value worked out at 0.21 kcal/mol.

Take GACGGCACGTGGGGAC: the “relative binding free energy” value is -0.04 kcal/mol.

ATGAGCACGTGAGGGA: the “relative binding free energy” value was 0.06 kcal/mol.

Regarding GCTGTCACGTGGGTAA, the “relative binding free energy” value was -0.02 kcal/mol.

Take GAAGTCACGTGTTGGA: the “relative binding free energy” value came out at 0.22 kcal/mol.

CTTTTCACGTGCTTGG: the “relative binding free energy” value came out at 0.15 kcal/mol.

Turning to ATTGGCACGTGGATCA, the “relative binding free energy” value is -0.09 kcal/mol.

Regarding GAGAACACGTGTGTTG, the “relative binding free energy” value is -0.06 kcal/mol.

AAGGACACGTGTTGTT: the “relative binding free energy” value was -0.08 kcal/mol.

Turning to TCTTTCACGTGTGATT, the “relative binding free energy” value was found to be 0.21 kcal/mol.

In the case of TAATACACGTGTGTTA, the “relative binding free energy” value turned out to be 0 kcal/mol.

Consider TGTCGCACGTGTGTGA, for which the “relative binding free energy” value is -0.05 kcal/mol.

Consider ATATTCACGTGGTAAA, for which the “relative binding free energy” value worked out at 0.23 kcal/mol.

Regarding TTTGGCACGTGTGGAT, the “relative binding free energy” value was 0 kcal/mol.

Regarding TGGTACACGTGTCGGT, the “relative binding free energy” value turned out to be 0.03 kcal/mol.

In the case of GGTGGCACGTGTGAAA, the “relative binding free energy” value was -0.04 kcal/mol.

In the case of TAATGCACGTGTAGGG, the “relative binding free energy” value was found to be 0.07 kcal/mol.

GCAGTCACGTGGGTGC: the “relative binding free energy” value is -0.04 kcal/mol.

For GTTTGCACGTGTTTCT, the “relative binding free energy” value was 0.05 kcal/mol.

As for GAAGGCACGTGCTGGC, the “relative binding free energy” value worked out at 0.06 kcal/mol.

In the case of ATTATCACGTGGTGAA, the “relative binding free energy” value worked out at 0.15 kcal/mol.

As to ATGGTCACGTGAAGGG, the “relative binding free energy” value came to 0.32 kcal/mol.

In the case of TGCCTCACGTGTTGGG, the “relative binding free energy” value amounted to 0.1 kcal/mol.

Regarding GCTTGCACGTGGAGGA, the “relative binding free energy” value was -0.04 kcal/mol.

On to TGTTCCACGTGCGTTT, for which the “relative binding free energy” value stood at 0.04 kcal/mol.

Regarding TCTGGCACGTGTTGTC, the “relative binding free energy” value is -0.01 kcal/mol.

Turning to GTACTCACGTGTGGTT, the “relative binding free energy” value turned out to be 0.36 kcal/mol.

ATATACACGTGCGGTG: the “relative binding free energy” value is 0.01 kcal/mol.

On to CGATACACGTGGGATG, for which the “relative binding free energy” value was -0.03 kcal/mol.

As for CGTGACACGTGGGCTG, the “relative binding free energy” value was -0.21 kcal/mol.

In the case of GGGGTCACGTGACTGA, the “relative binding free energy” value is 0.27 kcal/mol.

As to CTTTGCACGTGCGTGA, the “relative binding free energy” value was -0.07 kcal/mol.

As for AATGTCACGTGGTTAG, the “relative binding free energy” value is 0.07 kcal/mol.

With AGAAACACGTGGGGAG, the “relative binding free energy” value was -0.18 kcal/mol.

Consider GTGAGCACGTGGTAAA, for which the “relative binding free energy” value is 0.01 kcal/mol.

Turning to TTGGTCACGTGCTGGG, the “relative binding free energy” value is 0.14 kcal/mol.

Consider TGGAACACGTGAGAGG, for which the “relative binding free energy” value stood at 0.22 kcal/mol.

Regarding AGGATCACGTGAAGGG, the “relative binding free energy” value was 0.34 kcal/mol.

For TTTTCCACGTGGGCGT, the “relative binding free energy” value was -0.03 kcal/mol.

For the sequence CGGTTCACGTGTATAG, the “relative binding free energy” value is 0.28 kcal/mol.

Take GTTCACACGTGGTTTA: the “relative binding free energy” value was 0 kcal/mol.

For the sequence CGGGTCACGTGGGATC, the “relative binding free energy” value amounted to 0.09 kcal/mol.

AGCGGCACGTGGCCGG: the “relative binding free energy” value was -0.13 kcal/mol.

Consider TAACGCACGTGTTATG, for which the “relative binding free energy” value is -0.05 kcal/mol.

On to TGGGGCACGTGAGCCA, for which the “relative binding free energy” value was 0.17 kcal/mol.

As for TGCGCCACGTGGTTGT, the “relative binding free energy” value is -0.14 kcal/mol.

AGGGCCACGTGAGGAG: the “relative binding free energy” value was determined as 0.13 kcal/mol.

Consider CGTTGCACGTGGTTGG, for which the “relative binding free energy” value turned out to be 0.05 kcal/mol.

Take TGTATCACGTGATCTG: the “relative binding free energy” value was 0.13 kcal/mol.

On to GATAGCACGTGTGTGT, for which the “relative binding free energy” value was -0.09 kcal/mol.

For the sequence TTGGGCACGTGTCTGC, the “relative binding free energy” value was -0.19 kcal/mol.

For the sequence CAGTGCACGTGAGTTA, the “relative binding free energy” value is 0.34 kcal/mol.

As for AATTGCACGTGTGTAG, the “relative binding free energy” value was determined as 0.01 kcal/mol.

Regarding TATGACACGTGAGATG, the “relative binding free energy” value is 0.22 kcal/mol.

For the sequence TTTATCACGTGGTTCG, the “relative binding free energy” value amounted to 0.09 kcal/mol.

Take GTTGGCACGTGGGAAT: the “relative binding free energy” value was -0.14 kcal/mol.

With GGCGACACGTGAAGGT, the “relative binding free energy” value came to 0.23 kcal/mol.

AATTGCACGTGGGTGA: the “relative binding free energy” value is -0.05 kcal/mol.

Turning to GACGGCACGTGTTATG, the “relative binding free energy” value was determined as 0.04 kcal/mol.

In the case of TAGTGCACGTGCTGAT, the “relative binding free energy” value was -0.04 kcal/mol.

Take AGTTTCACGTGATGTG: the “relative binding free energy” value amounted to 0.25 kcal/mol.

Regarding CTTGACACGTGGTGTG, the “relative binding free energy” value was -0.12 kcal/mol.

In the case of AAATTCACGTGATATT, the “relative binding free energy” value stood at 0.22 kcal/mol.

Turning to TTAATCACGTGATATG, the “relative binding free energy” value worked out at 0.24 kcal/mol.

Take CGTTGCACGTGAGAGG: the “relative binding free energy” value is 0.22 kcal/mol.

Regarding GTCGCCACGTGCGGGG, the “relative binding free energy” value is -0.18 kcal/mol.

On to ACGTTCACGTGGGCGT, for which the “relative binding free energy” value came to 0.14 kcal/mol.

Consider GTCGTCACGTGTGAGA, for which the “relative binding free energy” value was found to be 0.25 kcal/mol.

On to CAGGTCACGTGGCTGG, for which the “relative binding free energy” value was -0.09 kcal/mol.

As for TGTTTCACGTGAGTTT, the “relative binding free energy” value was 0.44 kcal/mol.

Regarding GTGATCACGTGAGGTA, the “relative binding free energy” value was 0.16 kcal/mol.

Turning to ATGATCACGTGGCGGA, the “relative binding free energy” value was determined as 0.17 kcal/mol.

On to ATGGTCACGTGGCTGC, for which the “relative binding free energy” value was determined as 0 kcal/mol.

Turning to GTTGTCACGTGGGGCG, the “relative binding free energy” value was 0.08 kcal/mol.

With AGCAGCACGTGGGTGT, the “relative binding free energy” value was -0.25 kcal/mol.

For the sequence GGTTCCACGTGGGCTG, the “relative binding free energy” value is -0.04 kcal/mol.

Consider GATGTCACGTGTATAT, for which the “relative binding free energy” value amounted to 0.23 kcal/mol.

Turning to TAGGACACGTGAGAAG, the “relative binding free energy” value is 0.28 kcal/mol.

For the sequence ATTTGCACGTGTGTTT, the “relative binding free energy” value came to 0.01 kcal/mol.

Take TTGGTCACGTGGAAGG: the “relative binding free energy” value is 0.2 kcal/mol.

Take GTATTCACGTGTGTCT: the “relative binding free energy” value was found to be 0.39 kcal/mol.

In the case of GTAATCACGTGTATTA, the “relative binding free energy” value stood at 0.12 kcal/mol.

With ATTTACACGTGACTGT, the “relative binding free energy” value is 0.15 kcal/mol.

With ATTTTCACGTGGCGTC, the “relative binding free energy” value stood at 0.26 kcal/mol.

Turning to GGTTGCACGTGGTTAT, the “relative binding free energy” value was found to be 0.17 kcal/mol.

On to GGGCTCACGTGGGACG, for which the “relative binding free energy” value was found to be 0.26 kcal/mol.

In the case of TATAGCACGTGGTACG, the “relative binding free energy” value is -0.14 kcal/mol.

Regarding ATTGGCACGTGGGTGC, the “relative binding free energy” value was -0.23 kcal/mol.

Take GAATACACGTGTAGGT: the “relative binding free energy” value was 0.17 kcal/mol.

Take CATTGCACGTGGTTTC: the “relative binding free energy” value came to 0 kcal/mol.

For AAGGTCACGTGTGCGA, the “relative binding free energy” value came to 0.05 kcal/mol.

As for TTCTGCACGTGGGCTA, the “relative binding free energy” value was -0.11 kcal/mol.

For GTTTTCACGTGCTAAA, the “relative binding free energy” value worked out at 0.38 kcal/mol.

As for GAGTACACGTGCGGGC, the “relative binding free energy” value stood at 0.08 kcal/mol.

With GTTATCACGTGTGAGG, the “relative binding free energy” value is 0.33 kcal/mol.

Consider CAGTGCACGTGATGGG, for which the “relative binding free energy” value was 0.05 kcal/mol.

For AGTGTCACGTGGGAGG, the “relative binding free energy” value was -0.02 kcal/mol.

Turning to CTGGGCACGTGTTCTG, the “relative binding free energy” value was -0.16 kcal/mol.

GGTGGCACGTGGATAT: the “relative binding free energy” value was 0.03 kcal/mol.

In the case of TTGTTCACGTGGTTCC, the “relative binding free energy” value was 0.29 kcal/mol.

Regarding GTAATCACGTGGTGGT, the “relative binding free energy” value amounted to 0.12 kcal/mol.

For the sequence AGGTACACGTGGGGAA, the “relative binding free energy” value is -0.15 kcal/mol.

On to TGGCACACGTGGTAGT, for which the “relative binding free energy” value is -0.11 kcal/mol.

As for TTTTCCACGTGTAGGA, the “relative binding free energy” value was found to be 0.08 kcal/mol.

As to GAACGCACGTGGGGGT, the “relative binding free energy” value is -0.25 kcal/mol.

For GCAGACACGTGAGGTG, the “relative binding free energy” value stood at 0.21 kcal/mol.

For CTTGTCACGTGGGTAG, the “relative binding free energy” value is -0.11 kcal/mol.

TAATTCACGTGATGTC: the “relative binding free energy” value is 0.29 kcal/mol.

GTATACACGTGAGTTA: the “relative binding free energy” value turned out to be 0.24 kcal/mol.

TGCATCACGTGTGGTT: the “relative binding free energy” value is 0.36 kcal/mol.

With TAGTACACGTGGTTGA, the “relative binding free energy” value was -0.02 kcal/mol.

As for GATGTCACGTGTATGC, the “relative binding free energy” value is 0.05 kcal/mol.

With AGTGTCACGTGCAGGT, the “relative binding free energy” value is -0.08 kcal/mol.

For the sequence TAAGCCACGTGGGAGT, the “relative binding free energy” value is -0.12 kcal/mol.

Consider GAGGACACGTGTGGAT, for which the “relative binding free energy” value came to 0.12 kcal/mol.
